Source: ChEMBL document CHEMBL1157539, “Thousands of chemical starting points for antimalarial lead identification” (Nature, 2010)
Whole data set: some 13,000 compounds, median “IFI” near 4, cut for the highest 2% near 17. This is one part of the list.

Test: GSK_TCMDC: Inhibition Frequency Index (IFI). The number of non-kinase HTS assays where a compound showed > 50 % inhibition, expressed as a percentage of the number of such assays in which the compound was tested (-0 is zero)
Type: functional

| Compound | IFI |
| --- | --- |
| O=C(NCCN1CCCC1)c1cccc(-c2ccc(-c3nc4ccccc4[nH]3)cc2)c1 | 6.31% |
| Cc1csc(NC(=O)c2cn(-c3ccccc3)nc2-c2cccs2)n1 | 4.13% |
| CC(C)(C)c1ccc(CNCCOc2ccc(Nc3nnc(-c4ccc(-c5ncc[nH]5)cc4)o3)c3ccccc23)cc1 | 8.63% |
| COc1ccccc1-n1c(-c2ccc3ccccc3c2)csc1=NC(=O)c1ccccc1 | 1.35% |
| CCNC(=O)N[C@@H]1CN[C@@H](C#Cc2cc3c(Nc4ccc(OCc5cccc(F)c5)c(Cl)c4)ncnc3s2)C1 | 0% |
| O=C(Nc1ccc(F)cc1)NC1CCN(c2ccnc3ccccc23)C1 (stereo not drawn) | -0% |
| O=S(=O)(NCCN1CCCC1)c1cccc(-c2ccc(CNC3Cc4ccccc4C3)cc2)c1 | 11.4% |
| COc1ccc2nccc([C@@H](O)CN3CCC(NC(=O)c4ccc(Cl)c(Cl)c4)CC3)c2c1 | 4.41% |
| CN1CCC(NCCS(=O)(=O)c2cccc(Nc3ccc(-c4cccc(F)c4)cn3)c2)CC1 | 5.56% |
| COc1ccc(-c2csc3ncnc(Cl)c23)cc1OC | 3.47% |
| COc1cc(OC)cc(C(=O)Nc2nc(-c3ccccn3)cs2)c1 | 13.8% |
| CCCCNCc1ccc(OCc2cccc(COc3ccc(CNCCCC)cc3)c2)cc1 | 12.9% |
| CS(=O)(=O)Nc1cccc(-c2cnc3[nH]cc(-c4ccc(C(=O)O)cc4)c3c2)c1 | 2.75% |
| CCCCc1nc2nc(N)nc(N)c2cc1CCC | 1.61% |
| CN(C)CCOc1cc(NC(=O)c2ccc(-c3ccc(Cl)cc3Cl)cc2)ccc1-c1ccccc1 | 6.14% |
| O=C(Nc1ccc(N2CCN(Cc3cccc(F)c3)CC2)cc1)c1cccs1 | -0% |
| O=C(COC(=O)c1cccc(S(=O)(=O)N2CCc3ccccc32)c1)NNC(=O)c1cccs1 | 0.97% |
| FC(F)(F)c1ccc(CSc2ccc3nnc(-c4ccccn4)n3n2)cc1 | 1.23% |
| FC(F)(F)c1ccc2[nH]c(-c3ccc(-c4cccc(CNCC5CCCO5)c4)s3)nc2c1 (stereo not drawn) | 7.92% |
| COc1ccc2[nH]ccc(=NN=Cc3ccc(Cl)cc3)c2c1 | 0.74% |
| O=C(Cc1c[nH]cn1)Nc1cccc(-c2ccc(-c3nc4ccccc4[nH]3)cc2)c1 | 3.77% |
| CC(C)(c1ccccc1)c1ccc(O)c(CN2CCOCC2)c1 | 4.03% |
| CCn1cc(-c2cc(C(=O)Nc3ccc(OC)cc3C)c3ccccc3n2)c(C)n1 | 0% |
| C[C@@H](C(=O)N1CCOCC1)N1CC[C@H](NS(=O)(=O)c2ccc3ccnc(N)c3c2)C1=O | 0% |

| Compound | IFI |
| --- | --- |
| CN=C(NC)c1cccc(NC(=O)C=Cc2ccc(C=CC(=O)Nc3cccc(C(=NC)NC)c3)cc2)c1 | 1.42% |
| CCN(CC)CCNc1ccnc2c3ccccc3n(C)c12 | 1.47% |
| O=C(NCC1CC1)C1CCN(C(c2ccccc2)c2ccc(Cl)c(Cl)c2)CC1 (stereo not drawn) | 3.45% |
| CN1CCCc2cc(NC(=O)C=Cc3ccc(-c4ccc(F)cc4F)o3)ccc2C1 | 10.2% |
| Cc1cc2nc(N/C(N)=N/C(=O)NC3CCCCC3)nc(C)c2cc1C | 9.38% |
| CC(C)CNC(=O)c1cncc(-c2cccc(CNC3Cc4ccccc4C3)c2)c1 | 7.58% |
| FC(F)(F)c1ccc(COc2cc(Cl)ccc2Cn2ccnc2)cc1 | 8.57% |
| O=C(N[C@H]1CCN(Cc2ccc(OCCCN3CCCCC3)cc2)C1)c1ccc(Oc2ccccc2)cc1 | 7.53% |
| N=C(N)NN=CC(=O)Nc1ccc(C(F)(F)F)cc1 | -0% |
| O=C(Nc1ccc(-n2ccc(C(F)(F)F)n2)cc1)c1cccs1 | 1.39% |
| O=C(NCCc1ccc(F)cc1)c1ccc(N2CCN(c3ccncc3)CC2)nc1 | -0% |
| CCn1c(-c2nonc2N)nc2c(-c3ccccc3)ncc(OCCCNCCCN3CCOCC3)c21 | 3.08% |
| Cc1ccc(NCC(=O)Nc2ccc(F)c(Cl)c2)cc1S(=O)(=O)N1CCOCC1 | 3.13% |
| CC(C)n1ncc2c3c(N)nc(N)nc3ccc21 | 2.22% |
| Cc1[nH]c(C)c(-c2ccc(CCc3cccc(C(F)(F)F)c3)nc2)c(=O)c1Cl | 8.18% |
| O=C(Nc1cccc(-c2nn3ccccc3c2-c2ccnc(Nc3cccc(F)c3)n2)c1)C1CCCCC1 | 2.17% |
| O=C(Nc1ccccc1)Nc1cccc(-c2nn3c(OCC4CCCCN4)cccc3c2-c2ccncc2)c1 (stereo not drawn) | 6.43% |
| COc1ccc(C(=O)CCC(=O)N(Cc2ccc(-c3ccc(CNCCc4ccc(S(C)(=O)=O)cc4)cn3)cc2)C2CC3CCC2C3)cc1F (stereo not drawn) | 4.93% |
| COc1ccc2nccc([C@@H](O)CN3CCC(NCCNc4ccccn4)CC3)c2c1 | 0.75% |
| O=C(NCCCCCCNCc1ccc(-c2ccccc2)cc1)Nc1ccc(Cl)c(Cl)c1 | 5.84% |
| N#Cc1cccc(CN2CCCN(c3ccc(NC(=O)c4cccs4)cc3)CC2)c1 | 5.13% |
| O=C(Nc1cccc(CN2CCCN(Cc3ccc(O)cc3)CC2)c1)c1cc2ccccc2o1 | 0.67% |
| CC1(C)C(=O)N=C2C1=C(O)C(=O)c1ccccc12 | 17.2% |
| Cc1noc(-c2ccccc2)c1CN1CCCC2(CC(C(=O)NCc3cccc(F)c3F)=NO2)C1 (stereo not drawn) | 3.54% |

| Compound | IFI |
| --- | --- |
| COc1ccccc1Nc1nc(C)cc(NCc2ccc(-c3c(C)noc3C)cc2)n1 | 1.54% |
| O=C(NCCCCN1CCC(c2ccc([N+](=O)[O-])cc2)CC1)c1ccc(NC(=O)c2ccc(Cl)cc2)cc1 | 1.5% |
| CN1CCN(c2ccnc3cc4c(cc23)N(C(=O)Nc2ccc(-c3ccncc3)c3ccccc23)CC4)CC1 | 3.68% |
| O=C(Nc1cccc(-c2ccc(-c3nc4cc(C(F)(F)F)ccc4[nH]3)cc2)c1)Nc1ccc(Cl)c(Cl)c1 | 5.05% |
| CS(=O)(=O)Cc1ccc(Nc2nccc(NC3CCN(c4nccc(C(F)(F)F)n4)CC3)n2)cc1 | 3.76% |
| Cc1ccc(NC(=O)c2cnc(N3CCN(c4ccncc4)CC3)c(Cl)c2)cc1 | 11.9% |
| Cc1c(Cl)cccc1S(=O)(=O)Nc1ccc(CCN2CCC(N)CC2)cc1 | 9.84% |
| Oc1ccc(CN2CCC(NCc3cccc4ccccc34)CC2)cc1 | 3.33% |
| CCOc1ccc2nc(C)cc(N/N=C/c3ccccc3[N+](=O)[O-])c2c1 | 8.51% |
| CCc1ccc(O)c(-c2cc(C(=O)Nc3ccc(OC)c(Cl)c3)[nH]n2)c1 | 1.64% |
| CC(=O)c1ccccc1OCCSc1nnc(Cc2cccs2)n1C1CCCCC1 | 4.8% |
| O=C(Nc1ccccc1-c1ccccc1)C1CCCN1C(=O)Nc1ccc(Cl)cc1 (stereo not drawn) | 1.39% |
| CN1CCN(CCCN(Cc2ccc(-c3ccc(CNCc4ccc5c(c4)OCO5)cc3)cc2)C(=O)CCC2CCCC2)CC1 | 6.8% |
| COc1ccc2nccc(N3CCC(CCNCc4cc5c(cn4)OCCO5)CC3)c2c1 | 3.6% |
| COc1ccccc1CNC(=O)CCn1c(=O)[nH]c2ccsc2c1=O | -0% |
| CCOCc1cnc(C)nc1NCC(=O)c1c(C)[nH]c2cc(C)ccc12 | 1.53% |
| O=C(Cc1ccc([N+](=O)[O-])cc1)N1CCc2cc3nccc(N4CCN5CCC[C@@H]5C4)c3cc21 | 1.5% |
| CCOC(=O)c1nc(-c2cc(Cl)nc(Cl)c2)[nH]c1NC(=S)NCCCN1CCOCC1 | 3.91% |
| O=C(Nc1ccc(-c2nc3ccccc3[nH]2)cc1)c1ccc(S(=O)(=O)N2CCCCC2)cc1 | 0.71% |
| Cc1ccc(C(C(=O)Nc2ccc(N3CCNCC3)c(Cl)c2)c2ccccc2)cc1 (stereo not drawn) | 18.6% |
| CC1CC1C(=O)NC1CCN(CC2(c3ccccc3)CCCCC2)CC1 (stereo not drawn) | 6.38% |
| COc1cc(CNCCCNc2cc(=O)c3ccccc3[nH]2)c2c(c1)C(C)CN2C(=O)OC(C)(C)C (stereo not drawn) | 4.93% |
| O=C(NCCCCCN1CCC(c2c[nH]c3ccccc23)C1)Nc1ccc(Cl)c(Cl)c1 (stereo not drawn) | 4.32% |
| Cc1cc(N(C)C2CCN(CC3CCCCC3)C2)nc(Nc2ccc(Cl)cc2)n1 (stereo not drawn) | 6.58% |

| Compound | IFI |
| --- | --- |
| COc1ccc2ncc(F)c(CCN3CCC(NCc4cc(C)c5c(c4)OCCO5)CC3)c2n1 | 3.85% |
| COc1ccc2ncc(F)c([C@@H](O)CN3CCC(NCc4cc(C#N)c5c(c4)CCO5)CC3)c2n1 | 2.97% |
| O=C(C=Cc1ccc(Cl)c(Cl)c1)NCCCCCN1CCC(CCNC(=O)c2sc3ccccc3c2Cl)CC1 | 4.93% |
| O=C(/C=C/c1ccc(Cl)cc1)NCCCCCN1CCCC(C(=O)Nc2cccc(Cl)c2)C1 (stereo not drawn) | 7.69% |
| Clc1ccc2c(NN=Cc3cccnc3)ccnc2c1 | 1.5% |
| CN1CCN(c2ccc(Nc3nccc(-c4c(-c5cccc(NC(=O)c6c(F)cccc6F)c5)nn5ccccc45)n3)cc2)CC1 | 9.35% |
| CCOc1ccc(-c2nc(NC(=O)COc3ccc(OC)cc3)sc2C)cc1 | 1.75% |
| COc1ccc(CCCCN2C(=O)C(c3ccccc3)(c3ccccc3)N=C2N)cc1 | 7.69% |
| Cc1c(Cn2nc(Cl)c(N3CCNCC3)cc2=O)cccc1NC(=O)Nc1ccc(-c2ccccc2)cc1 | 10.8% |
| COc1ccc(Nc2nc(NC3CCN(Cc4ccccc4)CC3)cc(-c3ccncc3)n2)cc1 | 10.3% |
| Clc1ccc(-c2cnc3ccc(NCc4ccncc4)nn23)cc1 | 2.29% |
| COc1ccc(CN2CCC(N3CC(c4ccccc4)(c4ccccc4)OCC3=O)C2)c(O)c1 (stereo not drawn) | 9.23% |
| CCn1c(SCc2ccccc2)nc2c1c(=O)[nH]c(=O)n2C | 2.8% |
| COCC(C)n1c(SCC(=O)Nc2cc(C(F)(F)F)ccc2Cl)nc2ccccc2c1=O (stereo not drawn) | 5% |
| CC(C)c1ccc(N2CCN(CCCCNC(=O)c3ccc(NC(=O)c4cc(Cl)cc(Cl)c4)cc3)CC2)cc1 | -0% |
| Cc1ccc(C(=O)NC2CCN(CCNC(=O)Nc3cc(C)nc4ccccc34)CC2)cc1 | 0.85% |
| CN1CCN(c2ccnc3cc4c(cc23)N(Cc2ccccc2)CC4)CC1 | 0.75% |
| CC1(C)NC(N)=NC(=N)N1OCCCOc1cccc2ccccc12 | 5.63% |
| COc1ccccc1C1CCN(CCCCNC(=O)c2ccc(/C=C/c3cc(Cl)cc(Cl)c3)cc2)CC1 | 9.65% |
| CC1CN(c2cnn(Cc3ccc(NC(=O)Nc4ccc(-c5ccccc5)cc4)cc3)c(=O)c2Cl)CC(C)N1 (stereo not drawn) | 7.64% |
| COc1cc(NC(=O)CCCN2CCN(c3cccc(Cl)c3Cl)CC2)ccc1N1CCN(C(C)C)CC1 | 12.2% |
